Values marked as one replicate rest on one cluster of the flow cell; about a third of the high ones do not repeat.
System: ATP
Assay: switch fluorescence ratio, 500 uM ATP over buffer (Cy3 cluster intensity, sum of 5 cycles each) (fold (ratio)); higher = stronger signal-on switching upon ATP binding; sequences stand for … in TCGTCGGCAGCGTCAGATGTGTATAAGAGACAGTTTTTTTTTTTTTTTTTTTTTTTTT…TC
Conditions: aptamer strand: ATP DNA aptamer (quencher-CACCTGGGGGAGTATTGCGGAGGAAGG + anchor), 100 nM annealed; ATP concentration: 500 uM; one replicate
Summary of the method: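 After annealing to 100 nM quencher-labelled ATP aptamer, Cy3-labelled switching-strand clusters on a modified Illumina MiSeq flow-cell were imaged in selection buffer. A second image followed after 15 min with 500 uM ATP at 22 °C, and five such buffer/ATP cycles were done, each separated by NaOH stripping and re-annealing. The fluorescence ratio, averaged per switch-domain sequence, is summed target-cycle over summed buffer-cycle Cy3 intensity per cluster, with clusters outside 100-1000 RFU excluded.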
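Also: ATP exposure 15 min at 22 °C before imaging.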

| Sequence | switch fluorescence ratio |
| --- | --- |
| GTGGAAATTT | 1.09 |
| AAAATCAAA | 0.981 |
| CCTAGAAGAG | 1.01 |
| TAAAGAGTTT | 0.953 |
| TGCTCATTTA | 1 |
| CTGGACGCT | 1.11 |
| GATACGTGAC | 1.4 |
| AACACTGTAA | 1.2 |
| TTTCCCAGAG | 1.05 |
| ATTACGTGAG | 1.02 |
| GCGGTTCGTT | 0.978 |
| GCTACCTCGC | 1.22 |
| GATACGG | 0.982 |
| TTTAATGGCT | 0.992 |
| TGTAGGTCAG | 0.94 |
| TAACGTCCA | 0.956 |
| TTGGAGCGAG | 1.13 |
| CCACACGCGG | 1.73 |
| ATATTATCGG | 0.97 |
| AGGCACTGAA | 0.995 |
| TGTTATACAA | 1.03 |
| GACACGCGGT | 1.01 |
| TTCGAAAATA | 0.98 |

| Sequence | switch fluorescence ratio |
| --- | --- |
| GGATTGTCTG | 0.992 |
| AGTCACAAG | 1.02 |
| AACTATTAAT | 1.04 |
| TGTCTAAGCG | 0.989 |
| AACGGCGTAT | 1.01 |
| ACGTTTTTAA | 0.994 |
| CGTCCTGAGT | 1.02 |
| TGGCAAAGAA | 1.01 |
| CTGCACGGCG | 0.992 |
| GATCAGGATT | 0.986 |
| TACACAGTAT | 1.06 |
| ATTATAGCGC | 1.01 |
| GTTTACTGTG | 1.04 |
| TGGCTCTTGT | 1.01 |
| TCGGTCTAAT | 0.987 |
| TAAGCTGTTC | 1 |
| GCGACGTCAC | 2.13 |
| AGAACATTCA | 1.11 |
| GGACTGCGAA | 1.04 |
| TGCAACGC | 1 |
| CCAGACTCTG | 1.04 |
| ATTAGTCCAG | 1.06 |
| GGTATAATCC | 1.01 |

| Sequence | switch fluorescence ratio |
| --- | --- |
| GCTTGTGTG | 0.971 |
| TGTTTAGAGT | 1 |
| GTCAGGTGCA | 1.52 |
| TCAACGCGTC | 1.14 |
| AGCGGTGGCA | 0.97 |
| TCCTCTTGGT | 1 |
| GCCAGCGGGC | 1.03 |
| GTGGTCCTA | 0.966 |
| TGCTTAACCG | 1.04 |
| AAATGAAGGA | 1.03 |
| GGGTCAACCG | 0.995 |
| ACTGTCCCGA | 1.07 |
| GGAGGCAGCA | 0.952 |
| AAATGGCTCA | 1.01 |
| GGTCCGGATA | 1.07 |
| CCGTCGTCCC | 1.2 |
| CCGCTTGCTA | 2.53 |
| GTATAGGGGA | 1.01 |
| TAATAACCA | 0.969 |
| TTGAGAATGG | 1.03 |
| CCTTAGCGTC | 1.54 |
| GGCAGTGAGA | 1 |
| CCTGATGTAA | 1.01 |

| Sequence | switch fluorescence ratio |
| --- | --- |
| GGACAGCTAA | 0.976 |
| ACCGACATAT | 1.26 |
| TCGCCTACT | 1.13 |
| TGCCATTCGC | 0.955 |
| CACATCAATA | 1.06 |
| TCGGTAAGTT | 0.978 |
| CAACCGGTGC | 1.44 |
| GTTTTATCTA | 1.02 |
| TTGAATACCA | 1.03 |
| AGGTGGGTGC | 0.965 |
| TTTTTCGTAC | 1.04 |
| AATATGCTCA | 1.03 |
| AAATGGCGTA | 1.01 |
| AGCTGCTGTT | 1.03 |
| AAGCACTTTA | 1.16 |
| TTGAGGCCGA | 1.02 |
| ATAAGGTGCC | 1.03 |
| CTCGGTCGGT | 0.988 |
| CTATCGATAA | 1 |
| TCTGGAAGTA | 1.04 |
| ACTACAATTA | 1.07 |
| TAGTCCACGG | 1.03 |
| TCTGGTGTTA | 1 |

| Sequence | switch fluorescence ratio |
| --- | --- |
| TTGACCACA | 1.08 |
| TTTTTATCAC | 1.04 |
| CGAGCCTATT | 1.06 |
| AGTGTTGTTT | 0.989 |
| AGGGAGGTCT | 0.979 |
| CCTTTTATTG | 1 |
| CACCAGGCCC | 1.08 |
| GATCAACCGG | 1.02 |
| TGCTTTACAC | 1.01 |
| AACGCTTTGA | 1.1 |
| TATGACCGCG | 0.996 |
| CTACTCGGAG | 1.02 |
| CCTTAATGGC | 1.02 |
| GATTCAATCA | 0.983 |
| CGTCTAACCC | 0.984 |
| GGTGGTTG | 0.99 |
| ATATGGAGCT | 0.993 |
| TTCGAGCCTT | 1.06 |
| ACTCCCTGAT | 1.33 |
| CCGGGCA | 1.1 |
| AGGTCCTAG | 1.01 |
| CGACAACCTT | 1.84 |
| AATTCTGACC | 1 |

| Sequence | switch fluorescence ratio |
| --- | --- |
| TGTGGAGATG | 1.01 |
| ATCGTGGTGA | 1.01 |
| AAACCGGCG | 1.04 |
| GTGTCGCTCT | 0.986 |
| CCCGGAAGCC | 1.86 |
| CCGTCAATGG | 3.97 |
| CTCGTACACC | 1.06 |
| TGGAGGGCAG | 0.998 |
| AGGTGGTATG | 0.958 |
| TGTGTGAG | 0.976 |
| GTTTATAG | 1.17 |
| ATGCGATTTC | 1.08 |
| CTAGGCCGTC | 0.997 |
| GACCTCCAGT | 1.03 |
| GCTATATGCT | 0.951 |
| GAGTTTTGCA | 1.01 |
| TCATAATGGG | 1.01 |
| CCGCCAGCGT | 2.52 |
| GACGCTTGCC | 1.08 |
| ACGACTTTAA | 0.989 |
| ATACCGATTA | 1.02 |
| TAAGAAATTG | 1.02 |
| AGCTGTATCA | 0.994 |

| Sequence | switch fluorescence ratio |
| --- | --- |
| CTGCCCCTTC | 1.03 |
| ATAGTACTAG | 1.05 |
| TGGTAAAGTT | 0.967 |
| TTAGCCGGTG | 0.968 |
| TGGGTCGGTA | 0.994 |
| GAGTTACAGC | 1.01 |
| TCACCGACCT | 1.36 |
| ATGTGATTGC | 1.04 |
| TAGTTCGGCC | 0.967 |
| CTTACCGGTT | 1.02 |
| AGCAGAAGAA | 0.958 |
| CCGGGGCATA | 6 |
| GTGAACGTTT | 0.961 |
| TGGAAAGAGG | 1.04 |
| CTTCTCCGAC | 5.13 |
| GGTGTTTTC | 0.969 |
| TTACTAGAGG | 0.988 |
| ACCTTGGGCT | 0.99 |
| TCGTCGAAAG | 1.01 |
| GCTATTTAGA | 0.985 |
